The record followed here is the supplement of paper PMC12217912.

Sequences and labels used below:
B1: TEV protease; numbered along this chain (parent)
chain: MGESLFKGPRDYNPISSSICHLTNESDGHTTSLYGIGFGPFIITNKHLFRRNNGTLVVQSLHGVFKVKDTTTLQQHLVDGRDMIIIRMPKDFPPFPQKLKFREPQREERICLVTTNFQTKSMSSMVSDTSCTFPSGDGIFWKHWIQTKDGQCGSPLVSTRDGFIVGIHSASNFTNTNNYFTSVPKNFMELLTNQEAQQWVSGWRLNADSVLWGGHKVFMVKPEEPFQPVKEATQL

The variants in the assay derive from B1. Nature of the assay: raw area under fraction-flipped curve 0-4 h after induction (AUC4h, not background-subtracted), DNA-recorder readout of cleavage of the substrate (dimensionless); higher = more cleavage of the substrate by the protease variant. The following applies: temperature: 34 °C; time window: 0-4 h after rhamnose induction.

The list shows a part of the results. The full chains were built here from the parent and the listed change. Values near 0.05 are background.
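Further: Bxb1 expression induced with 0.2% (w/v) L-rhamnose at OD600 near 0.5, cultures sampled hourly, flipped fraction per protease–substrate barcode pair counted by paired-end Illumina sequencing.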

Consider MGESLFKGPRDYNPISSSICHLTNESDGHTTSLYGIGFGPFIITNKHLFRRNNGTLVVQSLHGVFCVKDTTTLQQHLVDGRDMIIIRMPKDFPPFPQKLKFREPQREERICLVTTNFQTKSMSSMVSDTSCTFPSGDGIFWKHWIQTKDGQCGSPLVSTRDGFIVGIHSASNFTNTNNYFTSVPKNFMELLTNQEAQQWVSGWRLNADSVLWGGHKVFMVKPEEPFQPVKEATQL [K66C], for which the “area with substrate ENLDFQS” value was 0.0669, the “area with substrate ENLFFQS” value worked out at 0.0648, the “area with substrate ENLIFQS” value was found to be 0.083 and the “area with substrate ENLPFQS” value is 0.0686. The “area with substrate ENLRFQS” value came out at 0.0689, the “area with substrate ENLSFQS” value worked out at 0.0475 and the “area with substrate ENLTFQS” value stood at 0.0842.

Turning to MGESLFKGPRDYNPISSSICHLTNESDGHTTSLYGIGFGPFIITNKHLFRRNNGTLVVQSSHGVFKVKDTTTLQQHLVDGRDMIIIRMPKDFPPFPQKLKFREPQREERICLVTTNFQTKSMSSMVSDTSCTFPSGDGIFWKHWIQTKDGQCGSPLVSTRDGFIVGIHSASNFTNTNNYFTSVPKNFMELLTNQEAQQWVSGWRLNADSVLWGGHKVFMVKPEEPFQPVKEATQL [L61S], the “area with substrate ENLDFQS” value was 0.0625, the “area with substrate ENLGFQS” value came to 0.0721, the “area with substrate ENLHFQS” value is 0.0662 and the “area with substrate ENLKFQS” value was 0.0838. Moreover, the “area with substrate ENLLFQS” value is 0.0735 and the “area with substrate ENLNFQS” value worked out at 0.0728.

For the variant MGESLFKGPRDYNPISSSICHLTNESDGHTTSLYGIGFGPFIITNKHLFRRNNGTLVVQSVHGVFKVKDTTTLQQHLVDGRDMIIIRMPKDFPPFPQKLKFREPQREERICLVTTNFQTKSMSSMVSDTSCTFPSGDGIFWKHWIQTKDGQCGSPLVSTRDGFIVGIHSASNFTNTNNYFTSVPKNFMELLTNQEAQQWVSGWRLNADSVLWGGHKVFMVKPEEPFQPVKEATQL [L61V], the “area with substrate ENLDFQS” value stood at 0.0588, the “area with substrate ENLFFQS” value stood at 0.0816, the “area with substrate ENLGFQS” value worked out at 0.0611 and the “area with substrate ENLHFQS” value is 0.0751. Besides, the “area with substrate ENLNFQS” value amounted to 0.0804, the “area with substrate ENLPFQS” value came to 0.0699, the “area with substrate ENLRFQS” value is 0.0664 and the “area with substrate ENLSFQS” value stood at 0.0714. In addition, the “area with substrate ENLVFQS” value came to 0.107.

MGESLFKGPRDYNPISSSICHLTNESDGHTTSLYGIGFGPFIITNKHLFRRNNGTLVVQSLHGVFKVKDTITLQQHLVDGRDMIIIRMPKDFPPFPQKLKFREPQREERICLVTTNFQTKSMSSMVSDTSCTFPSGDGIFWKHWIQTKDGQCGSPLVSTRDGFIVGIHSASNFTNTNNYFTSVPKNFMELLTNQEAQQWVSGWRLNADSVLWGGHKVFMVKPEEPFQPVKEATQL [T71I]: the “area with substrate ENLDFQS” value amounted to 0.0585, the “area with substrate ENLFFQS” value amounted to 0.0711, the “area with substrate ENLIFQS” value was found to be 0.0597 and the “area with substrate ENLKFQS” value was 0.0827. For the same variant, the “area with substrate ENLMFQS” value worked out at 0.0637, the “area with substrate ENLNFQS” value is 0.0694, the “area with substrate ENLPFQS” value came out at 0.0587 and the “area with substrate ENLQFQS” value came out at 0.0601. Also, the “area with substrate ENLSFQS” value is 0.0928, the “area with substrate ENLVFQS” value was 0.0735 and the “area with substrate ENLWFQS” value is 0.0571.

In the case of MGESLFKGPRDYNPISSSICHLTNESDGHTTSLYGIGFGPFIITNKHLFRRNNGTLVVQSLHGVFKVKDTTTLQQHLVDYRDMIIIRMPKDFPPFPQKLKFREPQREERICLVTTNFQTKSMSSMVSDTSCTFPSGDGIFWKHWIQTKDGQCGSPLVSTRDGFIVGIHSASNFTNTNNYFTSVPKNFMELLTNQEAQQWVSGWRLNADSVLWGGHKVFMVKPEEPFQPVKEATQL [G80Y], the “area with substrate ENLDFQS” value is 0.0597, the “area with substrate ENLFFQS” value came out at 0.0774, the “area with substrate ENLGFQS” value was 0.0536 and the “area with substrate ENLKFQS” value was found to be 0.0757. Besides, the “area with substrate ENLMFQS” value amounted to 0.0681, the “area with substrate ENLNFQS” value came to 0.0709, the “area with substrate ENLPFQS” value came out at 0.0596 and the “area with substrate ENLQFQS” value came out at 0.0813. Also, the “area with substrate ENLRFQS” value worked out at 0.0726, the “area with substrate ENLSFQS” value was determined as 0.0563 and the “area with substrate ENLWFQS” value turned out to be 0.0567.

In the case of MGESLFKGPRDYNPISSSICHLTNESDGHTTSLYGIGFGPFIITNKHLFRRNNGTLVVQSLHGVFKVKDTTTLQQHLVDGRDMIIIRSPKDFPPFPQKLKFREPQREERICLVTTNFQTKSMSSMVSDTSCTFPSGDGIFWKHWIQTKDGQCGSPLVSTRDGFIVGIHSASNFTNTNNYFTSVPKNFMELLTNQEAQQWVSGWRLNADSVLWGGHKVFMVKPEEPFQPVKEATQL [M88S], the “area with substrate ENLDFQS” value came out at 0.0563, the “area with substrate ENLEFQS” value is 0.0455, the “area with substrate ENLHFQS” value is 0.158 and the “area with substrate ENLIFQS” value is 0.0848. The “area with substrate ENLKFQS” value was found to be 0.0621, the “area with substrate ENLLFQS” value was 0.0927, the “area with substrate ENLNFQS” value came to 0.0599 and the “area with substrate ENLPFQS” value worked out at 0.0554. In addition, the “area with substrate ENLRFQS” value is 0.0729, the “area with substrate ENLVFQS” value is 0.0737 and the “area with substrate ENLWFQS” value turned out to be 0.0735.

As to MGESLFKGPRDYNPISSSICHLTNESDGHTTSLYGIGFGPFIITNKHLFRRNNGTLVVQSLHGVFKVKDTTTLQHHLVDGRDMIIIRMPKDFPPFPQKLKFREPQREERICLVTTNFQTKSMSSMVSDTSCTFPSGDGIFWKHWIQTKDGQCGSPLVSTRDGFIVGIHSASNFTNTNNYFTSVPKNFMELLTNQEAQQWVSGWRLNADSVLWGGHKVFMVKPEEPFQPVKEATQL [Q75H], the “area with substrate ENLDFQS” value amounted to 0.0712, the “area with substrate ENLEFQS” value is 0.0677, the “area with substrate ENLFFQS” value was 0.0751 and the “area with substrate ENLHFQS” value came out at 0.0468. Also, the “area with substrate ENLIFQS” value came to 0.071, the “area with substrate ENLKFQS” value is 0.0593, the “area with substrate ENLMFQS” value was found to be 0.0609 and the “area with substrate ENLNFQS” value was found to be 0.0597. The “area with substrate ENLPFQS” value was 0.0585, the “area with substrate ENLQFQS” value stood at 0.0599, the “area with substrate ENLRFQS” value turned out to be 0.0992 and the “area with substrate ENLSFQS” value came out at 0.0602. Further, the “area with substrate ENLWFQS” value worked out at 0.067.

As to MGESLFKGPRDYNPISSSICHLTNESDGHTTSLYGIGFGPFIITNKHLFRRNNGTLVVQSLHKVFKVKDTTTLQQHLVDGRDMIIIRMPKDFPPFPQKLKFREPQREERICLVTTNFQTKSMSSMVSDTSCTFPSGDGIFWKHWIQTKDGQCGSPLVSTRDGFIVGIHSASNFTNTNNYFTSVPKNFMELLTNQEAQQWVSGWRLNADSVLWGGHKVFMVKPEEPFQPVKEATQL [G63K], the “area with substrate ENLDFQS” value was 0.0543, the “area with substrate ENLHFQS” value worked out at 0.0626, the “area with substrate ENLNFQS” value was 0.0633 and the “area with substrate ENLPFQS” value amounted to 0.0573. Further, the “area with substrate ENLWFQS” value is 0.0645.

As to MGESLFKGPRDYNPISSSICHLTNESDGHTTSLYGIGFGPFIITNKHLFRRNNGTLVVQSLHGVFKVKDTTTLQQHLVDGRDMIIIRMPKLFPPFPQKLKFREPQREERICLVTTNFQTKSMSSMVSDTSCTFPSGDGIFWKHWIQTKDGQCGSPLVSTRDGFIVGIHSASNFTNTNNYFTSVPKNFMELLTNQEAQQWVSGWRLNADSVLWGGHKVFMVKPEEPFQPVKEATQL [D91L], the “area with substrate ENLDFQS” value came out at 0.0568, the “area with substrate ENLFFQS” value stood at 0.0745, the “area with substrate ENLKFQS” value amounted to 0.063 and the “area with substrate ENLLFQS” value was determined as 0.0588. Further, the “area with substrate ENLNFQS” value was found to be 0.0771.

Take MGESLFKGPRDYNPISSSICHLTNESDGHTTSLYGIGFGPFIITNKHLFRRNNGTLVVQSLHGVFKVKDTTTLQQHLVDGRDMIIIRMPKVFPPFPQKLKFREPQREERICLVTTNFQTKSMSSMVSDTSCTFPSGDGIFWKHWIQTKDGQCGSPLVSTRDGFIVGIHSASNFTNTNNYFTSVPKNFMELLTNQEAQQWVSGWRLNADSVLWGGHKVFMVKPEEPFQPVKEATQL [D91V]: the “area with substrate ENLDFQS” value amounted to 0.0647, the “area with substrate ENLFFQS” value came out at 0.0874, the “area with substrate ENLIFQS” value worked out at 0.0682 and the “area with substrate ENLKFQS” value is 0.0839. Further, the “area with substrate ENLNFQS” value is 0.0618, the “area with substrate ENLPFQS” value was determined as 0.0577, the “area with substrate ENLQFQS” value was found to be 0.0682 and the “area with substrate ENLRFQS” value worked out at 0.0668. Also, the “area with substrate ENLVFQS” value is 0.0613.
